Measured values taken from PubChem BioAssay AID504332 (National Center for Advancing Translational Sciences (NCATS), 2011).
Out of some 350,000 compounds screened, about 31,000 (8.9%) were called active. This list was built around the results that the source calls inconclusive (neither active nor inactive); the mix of calls is not that of the screen. The call rests on the fitted dose curve; in most records, active means well fitted inhibition curve with a large enough effect; inconclusive means small, poorly fitted or top-dose-only effect; inactive means no such curve, though single readings can be large or run the other way. Potencies beside an inconclusive call are fits to weak or partial responses and may not hold up.

Target: Histone-lysine N-methyltransferase EHMT2 (Homo sapiens) (UniProt Q96KQ7)
Sequence of UniProt Q96KQ7 (Q96KQ7 whole entry, looked up): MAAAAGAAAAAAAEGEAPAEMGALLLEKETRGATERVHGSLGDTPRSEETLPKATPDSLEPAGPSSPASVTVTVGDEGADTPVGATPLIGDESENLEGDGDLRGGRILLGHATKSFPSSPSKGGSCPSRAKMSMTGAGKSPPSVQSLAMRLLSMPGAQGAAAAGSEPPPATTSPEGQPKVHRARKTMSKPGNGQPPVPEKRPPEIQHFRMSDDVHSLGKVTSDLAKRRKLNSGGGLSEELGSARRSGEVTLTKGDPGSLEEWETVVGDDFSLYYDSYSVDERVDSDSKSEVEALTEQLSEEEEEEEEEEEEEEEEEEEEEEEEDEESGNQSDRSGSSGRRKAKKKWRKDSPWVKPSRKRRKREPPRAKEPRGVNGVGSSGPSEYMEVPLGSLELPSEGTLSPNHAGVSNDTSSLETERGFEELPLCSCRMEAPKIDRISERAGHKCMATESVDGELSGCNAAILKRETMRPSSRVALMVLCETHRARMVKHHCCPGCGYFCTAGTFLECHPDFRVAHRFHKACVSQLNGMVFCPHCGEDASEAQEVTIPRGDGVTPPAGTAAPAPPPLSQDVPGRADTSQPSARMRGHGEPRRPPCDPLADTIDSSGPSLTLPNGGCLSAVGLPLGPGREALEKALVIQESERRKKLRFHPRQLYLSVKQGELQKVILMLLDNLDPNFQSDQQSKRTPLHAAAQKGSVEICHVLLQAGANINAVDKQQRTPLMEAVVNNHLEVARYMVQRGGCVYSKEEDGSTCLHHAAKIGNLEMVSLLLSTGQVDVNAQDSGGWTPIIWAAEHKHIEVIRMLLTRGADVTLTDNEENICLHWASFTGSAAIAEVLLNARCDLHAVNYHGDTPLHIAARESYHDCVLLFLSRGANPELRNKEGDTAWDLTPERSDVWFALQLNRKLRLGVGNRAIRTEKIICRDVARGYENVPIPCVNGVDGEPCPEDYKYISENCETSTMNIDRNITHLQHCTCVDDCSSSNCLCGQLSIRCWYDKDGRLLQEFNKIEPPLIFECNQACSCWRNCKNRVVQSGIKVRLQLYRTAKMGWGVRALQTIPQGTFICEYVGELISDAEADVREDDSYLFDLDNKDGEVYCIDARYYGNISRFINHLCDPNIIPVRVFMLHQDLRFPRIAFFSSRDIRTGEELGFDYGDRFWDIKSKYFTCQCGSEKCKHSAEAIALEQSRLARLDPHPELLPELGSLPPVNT
Experiment: qHTS Assay for Inhibitors of Histone Lysine Methyltransferase G9a; further: nearly all actives have a fitted effect of over 75% in size
Settings: G9a H3K9 monomethylation, AlphaScreen, 2 h; activity, negative = inhibition: at 59 µM (top of the series) unless noted
Procedure, shortened: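 Enzyme 20 nM + cpd, 15 min RT; add b-H3K9 pep 500 nM / SAM 20 uM; 2 h RT; anti-H3K9me1 Ab 0.5 ug/mL + SA donor / anti-rabbit acceptor beads 20 ug/mL each, 10 min; AlphaScreen read.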
On the % scale 0 is the no-effect control and ±100 the full control effect; potency means the concentration at half of the fitted maximal effect; tags describe the fitted curve by direction and shape.

**Q.** Which “activity, negative = inhibition” value does the source give for `COc1ccc(OCC(O)CN2CCCCC2)cc1` (stereo unspecified) here?
**A.** inactive: -2.98% [at 102 µM]

**Q.** How did the “activity, negative = inhibition” value turn out when `O=C(O)Cc1ccc(NC(=O)COc2ccc3ccccc3c2)cc1` was run?
**A.** inactive: 18% [at 102 µM]

**Q.** With `COc1ccc(C(=O)OCC(=O)Nc2ccc3c(c2)OCO3)cc1S(=O)(=O)N1CCOCC1` as the compound, how does the activity, negative = inhibition read?
**A.** inactive: 5.81% [at 0.501 µM]

**Q.** How did the Potency turn out when `CCc1cc(C(=O)N2CCCC(N3CCN(c4cccc(C(F)(F)F)c4)CC3)C2)n(C)n1` (stereo unspecified) was run?
**A.** inconclusive: 100 µM [inhibitor, single point]

**Q.** With `COc1cccc(/C=C2/SC(=S)N(CCCC(=O)Nc3ccc(O)cc3)C2=O)c1` as the compound, how does the Potency read?
**A.** inconclusive: 4.47 µM [inhibitor, partial curve, poor fit]

**Q.** `COc1ccc(C[C@@H]2CN3C(=NC[C@@H]3C)N2CCNC(=O)c2ccc(C)c(Br)c2)cc1` was tested. Which activity, negative = inhibition did it give?
**A.** inconclusive: -54.1% [inhibitor]

**Q.** How did the “activity, negative = inhibition” value turn out when `COc1ccccc1NC(=O)CC(NCCN(C)C)C(=O)O` (stereo unspecified) was run?
**A.** inactive: 17.5% [at 102 µM]

**Q.** With `O=C1C(=O)N(CCCN2CCOCC2)C(c2ccc([N+](=O)[O-])cc2)/C1=C(\O)c1ccc2c(c1)OCCO2` (stereo unspecified) as the compound, how does the activity, negative = inhibition read?
**A.** inactive: -12.3% [at 0.0925 µM]

**Q.** With `Cc1cc(C)cc(OCC(=O)N/N=C/c2ccccn2)c1` as the compound, how does the Potency read?
**A.** inconclusive: 2.82 µM [inhibitor, full curve, poor fit]

**Q.** `CCCc1nc2c(sc3nc4c(cc32)COC(C)(C)C4)c(=O)n1Cc1ccco1` was tested. Which activity, negative = inhibition did it give?
**A.** inactive: -28.1% [at 12.7 µM]

**Q.** `CC(=O)N1CCc2cc(C(=O)CN3CCCCC3)ccc21` was tested. Which Potency did it give?
**A.** active: 50.1 µM

**Q.** Which “activity, negative = inhibition” value does the source give for `CC(=O)N[C@H]1[C@H](Oc2ccc3c(c2)CCC2C3CC[C@]3(C)C(=O)CCC23)O[C@H](CO)[C@@H](O)[C@@H]1O` (stereo partly specified) here?
**A.** inactive: 20% [at 102 µM]

**Q.** With `Cc1ccccc1CNC(=O)C(=O)NCC(c1ccco1)S(=O)(=O)c1ccc(F)cc1` (stereo unspecified) as the compound, how does the “activity, negative = inhibition” value read?
**A.** inactive: 3.47%

**Q.** How did the Potency turn out when `CC1CN(c2oc(COc3ccc(Cl)cc3Cl)nc2C#N)CC(C)O1` (stereo unspecified) was run?
**A.** inconclusive: 25.1 µM [inhibitor, single point]

**Q.** With `Cc1cccc(OCCOC(=O)c2ccc(F)c(S(=O)(=O)N3CCOCC3)c2)c1` as the compound, how does the activity, negative = inhibition read?
**A.** inactive: 24.1% [at 12.7 µM]

**Q.** `CC1CCc2[nH]c3ccc(C(=O)N(C)CC(=O)Nc4ccc(F)cc4)cc3c2C1` (stereo unspecified) was tested. Which Potency did it give?
**A.** inconclusive: 79.4 µM [inhibitor, single point]

**Q.** With `Cc1ccccc1NC(=O)Nc1cc(S(N)(=O)=O)ccc1C` as the compound, how does the Potency read?
**A.** inconclusive: 89.1 µM [inhibitor, single point]

**Q.** Which Potency does the source give for `O=C(O)C1C2C=CC(O2)C1C(=O)Nc1ccccc1C(F)(F)F` (stereo unspecified) here?
**A.** active: 3.16 µM

**Q.** How did the Potency turn out when `Cc1ccc(C2=N/C(=C\N(C)C)C(=O)O2)cc1` was run?
**A.** inconclusive: 28.2 µM [inhibitor, single point]

**Q.** For `Cc1ccc(S(=O)(=O)Nc2cc(C)c(O)c(Sc3n[nH]c(C)n3)c2)cc1`, which Potency is on record?
**A.** active: 7.08 µM

**Q.** How did the “activity, negative = inhibition” value turn out when `COc1cccc2cc(-c3nnc(Nc4ccccc4C)s3)c(=O)oc12` was run?
**A.** inactive: 13.1%

**Q.** For `Cc1ccc(SCC(=O)Nc2ccccc2C(=O)N2CCOCC2)cc1`, which Potency is on record?
**A.** inconclusive: 89.1 µM [inhibitor, single point]

**Q.** With `Cc1c(NC(=O)CCCOc2ccccc2)cccc1[N+](=O)[O-]` as the compound, how does the Potency read?
**A.** inconclusive: 1.41 µM [inhibitor, full curve, poor fit]

**Q.** For `COc1ccc(Nc2nc(-c3cc4cccc(OC)c4oc3=O)cs2)cc1`, which Potency is on record?
**A.** active: 44.7 µM

**Q.** Which Potency does the source give for `O=[N+]([O-])c1ccc(O)c2cccnc12` here?
**A.** inconclusive: 50.1 µM [inhibitor, partial curve]

**Q.** With `CCOc1ccc(NC(=O)Nc2cc(C(=O)O)ccc2N2CC3CC(C2)c2cccc(=O)n2C3)cc1` (stereo unspecified) as the compound, how does the “activity, negative = inhibition” value read?
**A.** inactive: 9.61%

**Q.** `CN(C)S(=O)(=O)c1ccc(N2CCCC2)c(C(=O)Nc2nc3ccccc3s2)c1` was tested. Which Potency did it give?
**A.** inconclusive: 89.1 µM [inhibitor, single point]

**Q.** For `O=C(/C=C\c1ccco1)Nc1nc(-c2ccccc2)cs1`, which Potency is on record?
**A.** inconclusive: 44.7 µM [inhibitor, partial curve, poor fit]

**Q.** How did the Potency turn out when `S=C(NCc1ccccc1)NNc1ccccc1` was run?
**A.** active: 39.8 µM

**Q.** For `CCOC(=O)c1ccc(NNC(=O)CC)c([N+](=O)[O-])c1`, which “activity, negative = inhibition” value is on record?
**A.** inactive: 18.7% [at 102 µM]

**Q.** How did the Potency turn out when `Cc1ccc2nc(/C(C#N)=C/c3ccc(-c4ccccc4C(=O)O)o3)[nH]c2c1` was run?
**A.** inconclusive: 79.4 µM [inhibitor, single point]

**Q.** With `Cn1ncc(C(=O)N2CCN(c3ccccc3)CC2)c1C1CCN(C(=O)OC(C)(C)C)CC1` as the compound, how does the “activity, negative = inhibition” value read?
**A.** inactive: -0.261%

**Q.** How did the Potency turn out when `S=c1nc[nH]c2c1ncn2C1CCCC1` was run?
**A.** inconclusive: 6.31 µM [inhibitor, single point]

**Q.** Which Potency does the source give for `Cc1ccc(C)n1C(CC(=O)O)c1ccc(C#N)cc1` (stereo unspecified) here?
**A.** inconclusive: 89.1 µM [inhibitor, single point]

**Q.** With `O=C(O)[C@H](Cc1ccccc1)N1Cc2ccccc2C1=O` as the compound, how does the Potency read?
**A.** active: 79.4 µM

**Q.** With `CCc1ccc(OCC(=O)NNC(=S)NC(=O)C2CC2)c(Br)c1` as the compound, how does the Potency read?
**A.** active: 10 µM

**Q.** With `CCOc1cc(C)c(S(=O)(=O)NCCCn2ccnc2)cc1C` as the compound, how does the Potency read?
**A.** inconclusive: 89.1 µM [inhibitor, single point]

**Q.** Which Potency does the source give for `Cc1oc2c(c1C(=O)c1ccc(Cl)cc1)C(=O)C(=O)c1ccccc1-2` here?
**A.** inconclusive: 7.94 µM [inhibitor, full curve, poor fit]

**Q.** With `Cc1cc(C(=O)COC(=O)CCc2nc3ccccc3c(=O)[nH]2)c(C)n1CC1CCCO1` (stereo unspecified) as the compound, how does the Potency read?
**A.** inconclusive: 44.7 µM [inhibitor, partial curve, poor fit]

**Q.** How did the Potency turn out when `Cc1nnc(SCC(=O)Nc2sccc2C(N)=O)s1` was run?
**A.** inconclusive: 31.6 µM [inhibitor, single point]

**Q.** `COc1ccc(-n2cc(CN(C)Cc3n[nH]c(=O)[nH]3)c(-c3cccc(F)c3)n2)cc1` was tested. Which Potency did it give?
**A.** inconclusive: 56.2 µM [inhibitor, partial curve, poor fit]

**Q.** For `CCCc1ccc(Oc2c(-c3ccc(O)c(C)c3O)n[nH]c2C)cc1`, which Potency is on record?
**A.** inconclusive: 35.5 µM [inhibitor, partial curve, poor fit]

**Q.** Which Potency does the source give for `O=C(Nc1ncc([N+](=O)[O-])s1)c1ccco1` here?
**A.** inconclusive: 79.4 µM [inhibitor, single point]

**Q.** With `CSc1ccc(CCNC(=O)C(C)n2nc(C)c3c(C)n(-c4ccccc4)nc3c2=O)cc1` (stereo unspecified) as the compound, how does the Potency read?
**A.** inconclusive: 7.08 µM [inhibitor, single point]

**Q.** With `O=S(=O)(Nc1ccc(-c2cn3c(n2)SCC3)cc1)c1cccs1` as the compound, how does the Potency read?
**A.** active: 35.5 µM

**Q.** With `O=C(NC1=NCCS1)c1cc(-c2ccc(-c3ccccc3)cc2)nc2ccccc12` as the compound, how does the “activity, negative = inhibition” value read?
**A.** inactive: -7.18%

**Q.** With `Cc1cccc(C(=O)NC(=S)NNC(=O)c2ccc(Cl)cc2)c1` as the compound, how does the Potency read?
**A.** active: 39.8 µM

**Q.** For `CCN(CC(=O)NCc1ccc(F)cc1)C(=O)CN1CCN(c2ccc(OC)cc2)CC1`, which Potency is on record?
**A.** active: 7.94 µM

**Q.** With `O=c1c2cc(N3CCOCC3)ccc2[nH]c(=S)n1Cc1ccccc1Cl` as the compound, how does the “activity, negative = inhibition” value read?
**A.** inactive: 41.7%

**Q.** For `COc1ccccc1N1CCN(Cc2ccc(-c3ccccc3[N+](=O)[O-])o2)CC1`, which Potency is on record?
**A.** active: 44.7 µM

**Q.** How did the Potency turn out when `O=c1[nH]n2cc(-n3cc([N+](=O)[O-])cn3)cnc2c1Br` was run?
**A.** inconclusive: 39.8 µM [inhibitor, partial curve, poor fit]

**Q.** With `c1ccc(Nc2nc(N3CCCCC3)nc(N3CCNCC3)n2)cc1` as the compound, how does the Potency read?
**A.** inconclusive: 50.1 µM [inhibitor, partial curve, poor fit]

**Q.** For `COc1cc(NCCC(=O)c2cccs2)c(OC)cc1Cl`, which Potency is on record?
**A.** active: 7.94 µM

**Q.** For `Cc1ccc(NC(=O)COc2ccc3oc4c(c3c2)CCCC4)c(C)c1`, which Potency is on record?
**A.** inconclusive: 0.112 µM [inhibitor, full curve, poor fit]

**Q.** Which activity, negative = inhibition does the source give for `CC(C)CN1CCN(Cc2c[nH]c3ccccc23)CC1CCO` (stereo unspecified) here?
**A.** inactive: 9.68% [at 0.501 µM]

**Q.** For `Cc1[nH]n(C)c(=O)c1N=Nc1ccc(S(C)(=O)=O)cc1`, which Potency is on record?
**A.** inconclusive: 50.1 µM [inhibitor, partial curve]

**Q.** `O=C(CC1Nc2ccccc2NC1=O)Nc1ccccc1` (stereo unspecified) was tested. Which activity, negative = inhibition did it give?
**A.** inconclusive: -66.8% [inhibitor] [at 12.7 µM]

**Q.** How did the Potency turn out when `Cc1cccc(CNC(=O)c2ccc(-c3nc(CS(=O)(=O)c4ccccc4)c(C)o3)cc2)c1` was run?
**A.** inconclusive: 4.47 µM [inhibitor, full curve, poor fit]

**Q.** With `COc1cc2c(cc1OC)/C(=C/C(=O)c1ccccc1)NCC2` as the compound, how does the Potency read?
**A.** inconclusive: 50.1 µM [inhibitor, partial curve, poor fit]

**Q.** For `Nc1nc(-c2ccc(Cl)cc2)nc(-c2ccc(Cl)cc2)n1`, which “activity, negative = inhibition” value is on record?
**A.** inactive: -7.39%

**Q.** How did the “activity, negative = inhibition” value turn out when `O=C(CSc1ccccc1C(=O)O)NC12CC3CC(CC(C3)C1)C2` was run?
**A.** inactive: -6.13% [at 102 µM]

**Q.** `COc1ccc(S(=O)(=O)NCCc2ccccc2)cc1OC` was tested. Which “activity, negative = inhibition” value did it give?
**A.** inactive: 4.53% [at 102 µM]

**Q.** Which Potency does the source give for `Cc1ccc(S(=O)(=O)NNC(=O)c2ccc3ccccc3n2)cc1` here?
**A.** inconclusive: 10 µM [inhibitor, full curve]

**Q.** Which Potency does the source give for `CCOC(=O)C1=C(c2ccccc2)N=c2s/c(=C\c3ccco3)c(=O)n2C1c1cccs1` (stereo unspecified) here?
**A.** inconclusive: 14.1 µM [inhibitor, partial curve, poor fit]

**Q.** With `Cc1ccc(O)c(NC(=O)/C=C/C(=O)O)c1` as the compound, how does the Potency read?
**A.** inconclusive: 5.62 µM [inhibitor, full curve]

**Q.** Which “activity, negative = inhibition” value does the source give for `COc1ccccc1OCC(=O)Nc1ccc2c(c1)OCO2` here?
**A.** inactive: -19.1% [at 102 µM]

**Q.** For `CC(C)(C)OC1NS(=O)(=O)OCC1NCOC(Cl)(Cl)Cl` (stereo unspecified), which Potency is on record?
**A.** active: 31.6 µM

**Q.** With `CCN(Cc1ccccc1)C(c1ccccn1)c1nnnn1C(C)(C)CC` (stereo unspecified) as the compound, how does the Potency read?
**A.** inconclusive: 89.1 µM [inhibitor, single point]

**Q.** With `CS(=O)(=O)c1ccccc1-c1csc(N2CCC(C(N)=O)CC2)n1` as the compound, how does the activity, negative = inhibition read?
**A.** inactive: 5.21% [at 12.7 µM]

**Q.** Which Potency does the source give for `O=c1c(C(c2ccc(O)cc2)c2c(O)nc3n(c2=O)CCCS3)c(O)nc2n1CCCS2` here?
**A.** inconclusive: 20 µM [inhibitor, partial curve, poor fit]

**Q.** `CC(=O)N1c2c(cc(Br)cc2S(=O)(=O)N2CCN(c3ccccn3)CC2)CC1C` (stereo unspecified) was tested. Which Potency did it give?
**A.** inconclusive: 25.1 µM [inhibitor, single point]
